# Assay results: paper PMC4336329 (PLoS ONE, 2015)
# The campaign covered roughly 310,000 compounds. About 14,000 (4.5%) showed an effect of 50% or more. Effects have a minus sign here. This is one part of the list.
# Molecular target: human ether-à-go-go-related gene (hERG) potassium channel (human, UniProt Q12809)
# Experiment: primary screen, population patch clamp on CHO cells stably expressing hERG
# 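Also: peak tail current of the secondary pulse compared with the same well before compound.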
# Chain of human ether-à-go-go-related gene (hERG) potassium channel (Q12809 whole entry, looked up): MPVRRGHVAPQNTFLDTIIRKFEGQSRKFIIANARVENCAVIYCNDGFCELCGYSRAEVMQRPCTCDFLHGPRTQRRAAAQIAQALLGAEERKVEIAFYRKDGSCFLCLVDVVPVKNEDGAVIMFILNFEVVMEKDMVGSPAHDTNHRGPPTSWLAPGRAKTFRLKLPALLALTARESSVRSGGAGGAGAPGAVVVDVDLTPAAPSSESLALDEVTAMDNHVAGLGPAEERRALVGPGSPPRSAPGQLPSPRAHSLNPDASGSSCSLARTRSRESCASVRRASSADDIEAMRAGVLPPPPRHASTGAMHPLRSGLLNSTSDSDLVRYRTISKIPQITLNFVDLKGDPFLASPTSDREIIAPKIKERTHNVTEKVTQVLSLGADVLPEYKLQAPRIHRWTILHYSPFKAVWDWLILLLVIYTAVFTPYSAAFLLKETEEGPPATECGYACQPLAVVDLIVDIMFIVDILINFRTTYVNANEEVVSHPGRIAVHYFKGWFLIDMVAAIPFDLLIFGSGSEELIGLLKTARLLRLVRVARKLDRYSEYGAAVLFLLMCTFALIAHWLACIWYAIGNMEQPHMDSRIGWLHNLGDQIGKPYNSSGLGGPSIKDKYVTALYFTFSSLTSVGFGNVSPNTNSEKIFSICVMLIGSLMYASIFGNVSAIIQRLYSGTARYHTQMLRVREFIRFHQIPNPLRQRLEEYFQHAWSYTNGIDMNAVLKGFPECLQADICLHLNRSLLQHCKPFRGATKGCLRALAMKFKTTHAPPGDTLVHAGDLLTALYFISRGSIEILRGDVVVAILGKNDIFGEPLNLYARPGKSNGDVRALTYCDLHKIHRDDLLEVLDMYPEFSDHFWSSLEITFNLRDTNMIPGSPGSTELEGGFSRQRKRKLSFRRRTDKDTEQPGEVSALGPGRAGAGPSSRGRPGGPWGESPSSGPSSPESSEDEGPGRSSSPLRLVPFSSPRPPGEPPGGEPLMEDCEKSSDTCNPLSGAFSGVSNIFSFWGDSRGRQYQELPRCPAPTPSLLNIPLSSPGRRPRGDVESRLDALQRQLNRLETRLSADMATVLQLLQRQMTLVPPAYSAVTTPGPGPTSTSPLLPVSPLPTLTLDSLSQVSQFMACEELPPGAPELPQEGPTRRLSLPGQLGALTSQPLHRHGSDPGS
row,Compound,"hERG current change (%, negative = inhibition) at 10uM [%]"
1,Cc1cccc(C)c1NC(=O)CN(C)C(=O)C1CC(=O)N(c2cccc3ccccc23)C1 (stereo not shown),-2.15
2,Cc1cc(=O)n2nc(N3CCC(C(=O)NCc4ccccc4)CC3)sc2n1,-3.68
3,O=C(c1ccc(C(=O)N2CCCc3ccccc32)s1)N1CCCc2ccccc21,-17.1
4,Cc1cc(C)n2nc(SCC(=O)c3cc(C)n(CC4CCCO4)c3C)nc2n1 (stereo not shown),1.05
5,COc1ccc(CCN(C)C(=S)Nc2cccc(C)c2)cc1OC,5.19
6,CC(C)n1cc(C(=O)N2CCCC(N3CCN(c4cccc(Cl)c4)CC3)C2)cn1 (stereo not shown),-38
7,COc1ccc(/C=N/Nc2nc(NCc3ccco3)nc(Nc3ccc(OC)cc3)n2)cc1,-5.24
8,Clc1cccc(-c2nnc(SCc3nc4ccccc4[nH]3)n2Cc2ccco2)c1,-34.4
9,COc1ccc(-c2c3c(cc(C)[n+]2[O-])oc2ccc(OC)cc23)cc1,3.19
10,NC(=O)C1=C[C@H](C2CCCCC2)C[C@H](OCc2ccc(CO)cc2)O1,2.51
11,COc1cc(/C=C/C(=O)OCC(=O)Nc2ccc3c(c2)OCCO3)ccc1OCC#N,3.1
12,CCN(CC)CCN(Cc1cc2cc(C)c(C)cc2[nH]c1=O)C(=S)NCc1ccco1,-52.8
13,CC1CC(C)(C)NC(=S)N1CCCC(=O)Nc1ccc(Br)cc1 (stereo not shown),-7.58
14,O=c1[nH]n(-c2ccc(Cl)cc2)c(=O)c(Cl)c1Cl,11.4
15,CCN(C(=O)CN1CCCCC1)c1c(N)n(Cc2ccccc2)c(=O)[nH]c1=O,4.35
16,CCn1c(SCC(=O)Nc2ccc(C(C)=O)cc2)nc2ccccc21,-1.04
17,COc1cc(C)nc(N(Cc2ccccc2)S(=O)(=O)c2ccc(C)cc2)n1,-4.77
18,CCc1ccccc1NC(=O)CN1CCN(C(=O)CN2C(=O)NC3(CCCC3)C2=O)CC1,7.54
19,O=C(Nc1nnc(C2CC2)s1)C1CCCCC1,-0.526
20,COC(=O)C12CC3CC(C1)CC(n1cnc(Cl)n1)(C3)C2,4.79
21,COc1ccc(C(=O)c2ccc(OC)cc2OC)cc1,7.15
22,CCOC(=O)CN1NC2(CCC(C)CC2)NC1=S (stereo not shown),4.61

row,Compound,"hERG current change (%, negative = inhibition) at 10uM [%]"
1,CN(C)c1cccc(C(=O)OCC(=O)Nc2nccs2)c1,11.2
2,COc1ccc(NC(=O)CCC(=O)Nc2nnc(C(F)(F)F)s2)c(OC)c1,-0.667
3,N#CC(Nc1ccccc1)c1ccccc1OCc1ccccc1 (stereo not shown),0.346
4,Cc1cccc(N2CCN(Cc3oc(CO)cc(=O)c3O)CC2)c1C,2.79
5,Cc1cccc(CN2CCN(c3ccc(Cl)cc3)CC2)c1,11
6,CC1CCCN(CCCNC(=O)c2ccc(CS(=O)(=O)c3c(Cl)cccc3Cl)o2)C1 (stereo not shown),-44.8
7,Cc1c(OCC(=O)NC(Cc2ccc(Cl)cc2)C(=O)O)ccc2c1oc(=O)c1ccccc12 (stereo not shown),-0.0909
8,CN(C)c1cccc(C(=O)Nc2cccc(S(=O)(=O)NC3=NCCC3)c2)c1,14.3
9,CC(C)NC(=S)NN=C1c2ccccc2-c2ccccc21,10.6
10,CCOc1ccc(NS(=O)(=O)c2cc3c(cc2C)N(C)CCO3)cc1,4.24
11,Cc1ccc(Cl)cc1NS(=O)(=O)Cc1ccccc1,-17.4
12,COCc1ccc(CN2CCCC(C(=O)Nc3ccc(-c4cscn4)cc3)C2)o1 (stereo not shown),-8.25
13,CN(c1ccc([N+](=O)[O-])cc1C(=O)Nc1ccccc1)C1CCCCC1,-9.36
14,O=C(NCCSc1ccccn1)c1ccc(Cl)cc1,-10.4
15,CC(C)C(NC(=O)c1ccco1)C(=O)NCC(c1ccco1)N(C)C (stereo not shown),12.5
16,COc1ccc(-n2c(SCC(=O)NCc3cccs3)nnc2-c2ccoc2C)cc1,-78
17,Cc1cc(C(=O)NNC(=S)NCc2ccco2)nn1C,19.1
18,O=C(Cn1nnc(-c2ccccc2-n2cnnn2)n1)c1ccccc1,-3.97
19,COc1cccc(C2=CC(=O)CC(C)(C)C2)c1,2.16
20,CCOc1ccc2ccccc2c1/C=N\NC(=O)c1ccc([N+](=O)[O-])cc1,8.5
21,Cc1ccc(S(=O)(=O)N2CCCOC2CNC(=O)C(=O)NCCC2=CCCCC2)cc1 (stereo not shown),11
22,COc1cc(/C=N/NC(=O)CCc2c(C)n[nH]c2C)cc(OC)c1OC,15.6

row,Compound,"hERG current change (%, negative = inhibition) at 10uM [%]"
1,CN1CCc2c(sc3c2c(=O)n(-c2ccc(Cl)cc2)c2nncn32)C1,4.11
2,Cc1ccc(C(=O)Nc2nnc(S(=O)(=O)N3CCC(C)CC3)s2)cc1,21.8
3,O=C(CCC(=O)N1CCN(S(=O)(=O)c2ccc3ccccc3c2)CC1)Nc1cc(Cl)cc(Cl)c1,8.53
4,COC(=O)N/N=C(C)\C=C\c1ccco1,19
5,C=CCN(C(=O)CNS(=O)(=O)c1ccccc1)C(C(=O)NCCOC)c1ccncc1 (stereo not shown),17.4
6,COc1ccc(C2CCCN2C(=S)Nc2cccc(Cl)c2C)cc1OC (stereo not shown),-10.2
7,COc1ccc(N(CC(=O)NN=C2CCN(C)CC2)S(=O)(=O)c2ccc(NC(C)=O)cc2)cc1,15.1
8,CC1(c2nnc(Cc3ccccc3)o2)CC(c2ccccc2F)=NO1 (stereo not shown),-12.6
9,O=C(O)COc1ccc(Cl)cc1Cl,7.53
10,Cc1cc(=O)c(C(=O)OC(C)C(=O)NC(N)=O)nn1-c1ccc(Cl)cc1 (stereo not shown),36.4
11,O=[N+]([O-])c1ccc(NNC(=S)Nc2ccccc2)cc1,-0.446
12,CCOc1ccc(-c2nnc3ccc(SCC(=O)Nc4cc(C)on4)nn23)cc1,-9.97
13,Cc1c(NC(=O)CCSc2ccc(Cl)cc2)c(=O)n(-c2ccccc2)n1C,-24.9
14,C[C@H](NC(=O)c1ccc(Cl)cc1)C(=O)NCCc1ccc(S(N)(=O)=O)cc1,5.4
15,Cc1nc(N2CCOCC2)nc(N2CCCCC2)c1[N+](=O)[O-],10.2
16,O=C(N/N=C/c1ccc[nH]1)c1ccc(Cl)cc1,-11.8
17,COc1ccc(C(=O)N/N=C(\Cc2ncc[nH]2)c2ccccc2)cc1,2.43
18,CC(=O)O.COc1c(O)ccc(C2NC(=O)NC(C)=C2C(=O)Nc2ccccc2C)c1[N+](=O)[O-] (stereo not shown),31.9
19,Cc1cc(O)cc2c(=O)c3ccccc3sc12,7.03
20,CN(C)C(=O)CN1C(=O)NC2(CCc3ccccc32)C1=O (stereo not shown),16.7
21,CC(OC(=O)C1CC=CCC1C(N)=O)C(Cl)=C(Cl)Cl (stereo not shown),12.5
22,CC1=C(C(=O)OCC(C)C)C(c2cccs2)NC(=S)N1 (stereo not shown),8.13

row,Compound,"hERG current change (%, negative = inhibition) at 10uM [%]"
1,CCOC(=O)c1sc(=S)n(-c2ccccc2)c1N(C(C)=O)C(C)=O,27.1
2,C=CCn1c(SCC(=O)Nc2ccc(C(=O)OCC)cc2)nnc1-c1cccs1,16.7
3,CN(CC(=O)NCc1ccccc1)CC(=O)Nc1ccc(Cl)c(C(F)(F)F)c1,-17.3
4,COCCCn1c(SCc2nnc(-c3ccc(OC)c(OC)c3)o2)nnc1-c1ccncc1,-4.8
5,C(=N\Nc1nnnn1-c1ccccc1)/c1ccncc1,6.33
6,O=[N+]([O-])c1cccc(-c2cn3nc(-c4ccccc4)c(-c4ccccc4)nc3n2)c1,-9.43
7,CCCCN(CC)C(=O)c1cccc(Cl)c1,13.1
8,Cc1nonc1OCCNCc1c(C(=O)N2CCCCCCC2)nc2ccc(Cl)cn12,-3.58
9,COC(=O)c1ccc(CSc2nnc(Nc3cccc(OC)c3)s2)o1,3.75
10,O=c1[nH]c(CSc2ncc(C(F)(F)F)cc2Cl)nc2ccccc12,23.8
11,O=C(CCC(=O)N1CCCCCC1)NCc1ccc(F)cc1,-5.94
12,Cc1cc(N)ccc1-c1cc2ccccc2oc1=O,14.5
13,CCCOC(=O)C1C2C=CC3(CN(c4ccc(Cl)c(F)c4)C(=O)C13)O2 (stereo not shown),-6.99
14,Cc1ccccc1C1NC(=S)NC2=C1C(=O)CCC2 (stereo not shown),3.09
15,Cc1cccnc1-n1c(-c2ccco2)nc2ccccc2c1=O,8.61
16,COC(=O)c1cc(C(=O)N2CCN(c3ccccc3OC)CC2)cc([N+](=O)[O-])c1,-34.7
17,Cc1ccc2nc(N3CCN(c4cccc(C)c4C)CC3)c3nnnn3c2c1,14.4
18,CCc1nc2nc(C)c(NS(=O)(=O)c3ccc(Cl)cc3)c(=O)n2[nH]1,14.7
19,O=C(NCCN1CCOCC1)c1cc2sccc2n1Cc1ccc(Cl)cc1,-59.9
20,Cc1ccnc(NS(=O)(=O)c2ccc(NC(=O)C(C)(C)C)cc2)n1,4.11
21,COc1ccc(-c2ccc(C(=O)O)o2)c([N+](=O)[O-])c1,15.2
22,FC(F)(F)c1ccc(Cl)c(-n2c(-c3ccco3)n[nH]c2=S)c1,22.2
